Measured values reported in paper PMC9625839 (Journal of medicinal chemistry, 2021).

B1: TLHE-rIL2 (rIL2 conjugated at cysteine 3 to the small-molecule transthyretin ligand TLHE (3)) (ligand)
chain: not shown
modifications: cysteine 3 conjugated to TLHE (3) by thiol-maleimide reaction (+837.43)
B2: recombinant interleukin 2 (rIL2) (ligand)
chain: not shown

Target: high-affinity mouse IL2 receptor on CTLL-2 cells (mouse (endogenous in CTLL-2))
Assay: cell-based or functional assay

Binder | CTLL-2 cell proliferation (WST-1 absorbance), EC50 | CTLL-2 cell proliferation, EC50 in the absence of TTR (panel C) | CTLL-2 cell proliferation, EC50 in the presence of 50 nM TTR
B1 | 0.51 ng/mL | 0.56 ng/mL | 0.5 ng/mL
B2 | 0.42 ng/mL | – | –
